The campaign covered roughly 310,000 compounds. About 2,200 (0.71%) showed an effect of 50% or more. The effect is printed as a negative number. This is one part of the list.
target: human ether-à-go-go-related gene (hERG) potassium channel (human, UniProt Q12809); test: primary screen, population patch clamp on CHO cells stably expressing hERG
Sequence (Q12809 whole entry, looked up): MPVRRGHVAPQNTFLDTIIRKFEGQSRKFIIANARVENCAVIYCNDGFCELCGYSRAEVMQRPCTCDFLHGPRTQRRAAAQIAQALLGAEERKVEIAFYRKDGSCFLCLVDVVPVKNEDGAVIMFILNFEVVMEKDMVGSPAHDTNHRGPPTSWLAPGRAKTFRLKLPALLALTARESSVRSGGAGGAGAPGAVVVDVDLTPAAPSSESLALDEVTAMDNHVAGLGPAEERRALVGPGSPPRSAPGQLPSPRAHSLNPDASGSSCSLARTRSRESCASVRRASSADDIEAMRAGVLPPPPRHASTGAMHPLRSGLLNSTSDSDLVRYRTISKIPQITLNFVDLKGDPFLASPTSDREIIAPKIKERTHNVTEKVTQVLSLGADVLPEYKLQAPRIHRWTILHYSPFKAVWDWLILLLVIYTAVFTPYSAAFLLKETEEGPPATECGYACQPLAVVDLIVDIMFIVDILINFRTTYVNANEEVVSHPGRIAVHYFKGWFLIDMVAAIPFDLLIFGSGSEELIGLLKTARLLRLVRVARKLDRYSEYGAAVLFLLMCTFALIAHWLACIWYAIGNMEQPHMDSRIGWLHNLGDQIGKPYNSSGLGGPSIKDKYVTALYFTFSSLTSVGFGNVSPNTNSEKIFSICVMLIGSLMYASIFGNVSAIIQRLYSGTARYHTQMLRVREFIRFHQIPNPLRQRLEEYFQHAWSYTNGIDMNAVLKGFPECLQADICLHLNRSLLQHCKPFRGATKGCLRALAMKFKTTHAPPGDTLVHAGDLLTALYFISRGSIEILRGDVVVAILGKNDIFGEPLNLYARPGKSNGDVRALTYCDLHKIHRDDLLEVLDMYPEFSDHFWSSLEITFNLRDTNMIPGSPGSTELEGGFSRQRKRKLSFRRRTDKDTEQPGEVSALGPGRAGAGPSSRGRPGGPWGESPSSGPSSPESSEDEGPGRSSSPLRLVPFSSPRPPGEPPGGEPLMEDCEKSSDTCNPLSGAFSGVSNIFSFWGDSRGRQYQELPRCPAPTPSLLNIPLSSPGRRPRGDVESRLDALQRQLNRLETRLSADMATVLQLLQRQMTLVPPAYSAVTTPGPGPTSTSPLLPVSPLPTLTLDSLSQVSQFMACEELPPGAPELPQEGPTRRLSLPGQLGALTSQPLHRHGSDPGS

SMILES | hERG current change (%, negative = inhibition) at 1uM [%]
O=C(CSC1c2ccccc2-c2ccccc21)N/N=C/c1ccccc1O | 13.5
CCOC(=O)c1c(NC(=O)CNC2CCCCC2)sc(C)c1C | 9.04
Cc1noc(C)c1COc1ccc(C(=O)OCC(=O)NCc2ccccc2Cl)cc1 | 15.3
NS(=O)(=O)c1ccc(-c2ccc(/C=N/NC(=O)c3ccccc3O)o2)cc1 | 5.47
CC(=O)C1=C(O)C(=O)N(c2ccc(C(=O)O)cc2)C1c1ccc([N+](=O)[O-])cc1 (centres unmarked) | 21
CCc1c(C)c(C#N)c2nc3ccccc3n2c1-n1nc(C)cc1C | 4.29
COCCN1CN=C(NS(=O)(=O)c2ccc(C)cc2)NC1 | 1.53
CC(=O)c1ccc(OCCNS(=O)(=O)c2ccc(-n3cnnn3)c(C)c2)cc1 | 10.2
COc1cc(/C=C2\SC(=Nc3ccccc3OC)NC2=O)ccc1O | 8.45
COc1ccc(OC)c(C(=O)NC(CC(N)=O)c2ccc(NCCN3CCCC3)c([N+](=O)[O-])c2)c1 (centres unmarked) | 10.2
Cc1ccccc1-n1c(SCC(=O)c2cc(C)n(C)c2C)nnc1-c1ccncc1 | 2.14
Nc1ccccc1SCC1CSc2nc3ccccc3c(=O)n21 (centres unmarked) | -7.26
CN(C)c1nc(OCCNC(=O)COc2ccccc2Cl)nc(N(C)C)n1 | 4.17
CC(C)[C@H](NC(=O)c1cc2cc(Cl)ccc2n1C)C(=O)N1CCC(C(=O)O)CC1 | 14.9
Cc1ccc(-c2ccccc2)n1-c1ccc(C(=O)O)cc1 | 7.42
Cc1cc(NC(=O)c2cc(-c3ccco3)on2)nn1Cc1ccc(Cl)cc1 | -12.8
CCn1cc(C(=O)N2CCN(c3ccccn3)CC2)c2cc(OC)c(OC)cc2c1=O | 2.06
Cc1ccc(C2=NCC(=O)N(CC(=O)N3CCCCC3)c3sc(C)c(C)c32)cc1 | 3.68
CCS(=O)(=O)n1nc(-c2ccccc2)nc1SC | -1.66
CC(=O)c1ccc(NC(=O)CN2CCC(C(=O)c3ccc(F)cc3)CC2)cc1 | 6.3
COc1ccc(-c2ccc(-c3noc(-c4ccccc4OC)n3)c(OC)n2)cc1 | 16.8
Cc1cc(C)nc(SCC(=O)NC2=NC(=O)C(C)S2)n1 (centres unmarked) | 7.54

SMILES | hERG current change (%, negative = inhibition) at 1uM [%]
Cc1noc(NS(=O)(=O)c2ccc(NC(=O)CSc3nnc(-c4ccccc4)n3C3CCCCC3)cc2)c1C | 2.36
COc1ccc(C(=O)O/N=C(\N)c2ccccc2)c(OC)c1 | 9.09
COc1cc(/C=C2/C(=O)c3cccc([N+](=O)[O-])c3C2=O)c(Br)cc1O | 11.7
COCCNC(=O)C1CCCN(c2ncccn2)C1 (centres unmarked) | 10.3
Cc1nnc(SCC(=O)Nc2cc(C(F)(F)F)ccc2Cl)n1C | 12
CCCCOc1ccc([N+](=O)[O-])cc1C(=O)O | 15.3
Cc1ccc(S(=O)(=O)N2CCN=C2SCc2ccc(Cl)c(Cl)c2)cc1 | 10.2
CC(=O)Nc1scc(C)c1-c1nc2ccccc2s1 | 4.95
Cn1c(=O)c2c(nc(SCCCC#N)n2Cc2ccccc2F)n(C)c1=O | 3.53
COc1cc(/C=N/NC(=O)c2ccncc2)c([N+](=O)[O-])cc1OC | 10.8
CCC(C)n1c(S(=O)(=O)O)nc2ccccc21 (centres unmarked) | 0.328
COc1ccc(S(=O)(=O)Nc2ccc3c(c2)COC3=O)cc1OC | -7.58
Nc1ccc(N=Nc2ccccc2)cc1 | -11.2
NNC(=O)COc1ccc2oc3c(c2c1)CCCC3 | 20.5
COc1ccccc1OCCC(=O)N1CCN(c2ccccc2OC)CC1 | 5.54
CC(CC(=O)NCc1ccccc1)C1CCCO1 (centres unmarked) | 11.3
CN1CCN(c2nc(Nc3cccc(C(F)(F)F)c3)nc(N3CCOCC3)n2)CC1 | 11.1
CCc1nc(N(CC)CC)c2oc3ccccc3c2n1.Cl | -10.3
COc1ccc(C(=O)Nc2nc(CC(=O)NCCc3ccccc3)cs2)cc1 | -3.84
CCCC(C)NC(=O)COC(=O)c1ccc(Cl)c(S(N)(=O)=O)c1 (centres unmarked) | 11.4
O=C(Nc1ccccc1-c1nc2ccccc2[nH]c1=O)c1cccs1 | 6.31
Cn1cccc1Cc1nnc(SCC(=O)NCc2ccccc2)n1-c1ccc(F)cc1 | 9.69

Reference: publication PMC4336329 (PLoS ONE, 2015)
